Laboratory results as given in PMC7819943, “Rice protein-binding microarrays: a tool to detect cis-acting elements near promoter regions in rice”.
The other results are listed elsewhere or left out.

The sequences below were run against T1, OsWOX13 (Oryza sativa, UniProt Q5QMM3 1-267) (assay: protein-binding microarray (RPBM); PBS, 2% BSA, 51.3 ng/ul salmon testes DNA, 50 uM zinc acetate, 200 nM TF, 25 C, 1 h; high values mean tight binding). Settings: protein: recombinant; tags: N-terminal polyhistidine and DsRed monomer fusion (pET32a); label: CyDye5-dUTP incorporated in the synthesized complementary strand; 3' TTTTT single-stranded linker to array surface; dsDNA, one strand shown.
T1 sequence: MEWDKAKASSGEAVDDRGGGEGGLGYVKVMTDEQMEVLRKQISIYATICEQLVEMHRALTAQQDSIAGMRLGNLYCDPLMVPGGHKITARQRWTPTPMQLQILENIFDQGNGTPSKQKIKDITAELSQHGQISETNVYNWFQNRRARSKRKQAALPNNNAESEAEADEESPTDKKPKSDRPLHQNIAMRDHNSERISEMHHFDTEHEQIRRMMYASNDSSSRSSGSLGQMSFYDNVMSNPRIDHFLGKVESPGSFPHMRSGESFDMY
How it was run: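 Using Ni–NTA, transcription factors fused N-terminally to polyhistidine and DsRed were purified after expression in E. coli BL21-CodonPlus. These were incubated at 200 nM with a blocked, double-stranded custom Agilent array for 1 h at 25 °C in a buffer containing 50 µM zinc acetate, and the array was washed. The binding signal is per-feature fluorescence intensity (arbitrary units) on an Axon 4000B scanner.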

Q: “ACCTTGATGCCCTTGATTACTTTTAACGTCCTAATTAAGACGGAGTCACCTAGTGCAG” was tested. Which binding signal did it give?
A: Its binding signal is 15900 fluorescence intensity (a.u.).

Q: For “TATTAAGTGTCAATGATTGAAATGGATGATTTACCATGTGCGGAGTCACCTAGTGCAG”, which binding signal is on record?
A: The binding signal was 33200 fluorescence intensity (a.u.).

Q: How did the binding signal turn out when “AATAAATGGTTATGAACTAATGATTGATTGCGATGTAGGACGGAGTCACCTAGTGCAG” was run?
A: The binding signal was 41900 fluorescence intensity (a.u.).

Q: For “AAGGTTTAATTTGGTCTTTCACGTTTTATTTTGTCCATATCGGAGTCACCTAGTGCAG”, which binding signal is on record?
A: Its binding signal is 4500 fluorescence intensity (a.u.).

Q: How did the binding signal turn out when “AGATGGCAGTAATTAGTTAATATGCAATTAAATTTAGCGTCGGAGTCACCTAGTGCAG” was run?
A: Its binding signal is 16100 fluorescence intensity (a.u.).

Q: For “CCTATCAACAAATCACAATAATTATCCATTTAATTTCTTCCGGAGTCACCTAGTGCAG”, which binding signal is on record?
A: The binding signal was 9260 fluorescence intensity (a.u.).

Q: With “CAATAATTTCAGCCCGCTAAACTAACCGGCCCACCAACCCCGGAGTCACCTAGTGCAG” as the sequence, how does the binding signal read?
A: The binding signal was 5470 fluorescence intensity (a.u.).

Q: Which binding signal does the source give for “AATTTATGCAATTTGGCCAATTATATATGTGGTTTTGGAACGGAGTCACCTAGTGCAG” here?
A: The binding signal was 3800 fluorescence intensity (a.u.).

Q: Which binding signal does the source give for “CTAATTTGATGTTGTAAATATTACTATATTTGTCTACAAGCGGAGTCACCTAGTGCAG” here?
A: The binding signal was 12600 fluorescence intensity (a.u.).

Q: With “CTAAAGAAATTGAAGAGGCTATCAAGCTCTTGTGGATAGACGGAGTCACCTAGTGCAG” as the sequence, how does the binding signal read?
A: The binding signal was 5350 fluorescence intensity (a.u.).

Q: Which binding signal does the source give for “TCTAATTAGTAAACTGTAGTAGTGAGCAAATTGTACTAGACGGAGTCACCTAGTGCAG” here?
A: Its binding signal is 20900 fluorescence intensity (a.u.).

Q: How did the binding signal turn out when “AAACATCAATGATTATACCAATTTTATAACATTAGACGTACGGAGTCACCTAGTGCAG” was run?
A: Its binding signal is 8130 fluorescence intensity (a.u.).

Q: How did the binding signal turn out when “TTTAATTGCGCCTAGAGAAGAAACAAATGTAAATAGGCCTCGGAGTCACCTAGTGCAG” was run?
A: Its binding signal is 10900 fluorescence intensity (a.u.).

Q: Which binding signal does the source give for “ACTTGATTTTCTTGATTTACGAGATGGAGTTTTGCCTGTTCGGAGTCACCTAGTGCAG” here?
A: The binding signal was 29900 fluorescence intensity (a.u.).

Q: With “TCCTGGTTCACCAATCACCAGCGATGATGACTTCTTGATCCGGAGTCACCTAGTGCAG” as the sequence, how does the binding signal read?
A: The binding signal was 11100 fluorescence intensity (a.u.).

Q: “TAGATTGATTATCTTGTCAAGTTGCAGAAAATCCCAGGTACGGAGTCACCTAGTGCAG” was tested. Which binding signal did it give?
A: The binding signal was 48000 fluorescence intensity (a.u.).

Q: With “AATACTAATTAATTAATGGAATAAATATACTATAGGATTTCGGAGTCACCTAGTGCAG” as the sequence, how does the binding signal read?
A: Its binding signal is 45900 fluorescence intensity (a.u.).

Q: “GTATGAATGATTATGAAATTGCCCACGTTTTGGTCTGATTCGGAGTCACCTAGTGCAG” was tested. Which binding signal did it give?
A: Its binding signal is 21100 fluorescence intensity (a.u.).

Q: Which binding signal does the source give for “AACGCATCATGATTGTGTGTTGTAGTGGTGCGTACACATACGGAGTCACCTAGTGCAG” here?
A: The binding signal was 4380 fluorescence intensity (a.u.).

Q: For “TTGACTTAAATTATAATTTTAAACCATATATTATAATTGGCGGAGTCACCTAGTGCAG”, which binding signal is on record?
A: The binding signal was 31400 fluorescence intensity (a.u.).

Q: With “TTCAAATCTAGATTTGAAAGTTTCAAAATCTAAGTTGTTTCGGAGTCACCTAGTGCAG” as the sequence, how does the binding signal read?
A: The binding signal was 3650 fluorescence intensity (a.u.).

Q: How did the binding signal turn out when “AACATACCTCCTATAATTGGATATACTTGGATTCGTAACACGGAGTCACCTAGTGCAG” was run?
A: The binding signal was 4970 fluorescence intensity (a.u.).

Q: With “ATAAATTAACTCGGCTAGCTAGCTAGATAGAGCTCACGGCCGGAGTCACCTAGTGCAG” as the sequence, how does the binding signal read?
A: The binding signal was 11400 fluorescence intensity (a.u.).

Q: “TGTGATCGATTGATTGGGACAAAAGTTCATTTTAGAGTGGCGGAGTCACCTAGTGCAG” was tested. Which binding signal did it give?
A: The binding signal was 49800 fluorescence intensity (a.u.).

Q: “TACTGTAATTACCCAATAACTATATTATAACTGCATTGCACGGAGTCACCTAGTGCAG” was tested. Which binding signal did it give?
A: The binding signal was 29700 fluorescence intensity (a.u.).

Q: How did the binding signal turn out when “CCGGTCTATCAATTCCCCTTTCTGATACAATAAAATCTGACGGAGTCACCTAGTGCAG” was run?
A: Its binding signal is 5080 fluorescence intensity (a.u.).

Q: “GATGCATATCAATCTAGCATTGCCGGTCAACGTTCTCGAGCGGAGTCACCTAGTGCAG” was tested. Which binding signal did it give?
A: The binding signal was 3360 fluorescence intensity (a.u.).

Q: With “GGGTGACGATTTTGTAATTCGATGACAAGTTGAGGGACCTCGGAGTCACCTAGTGCAG” as the sequence, how does the binding signal read?
A: The binding signal was 3580 fluorescence intensity (a.u.).

Q: How did the binding signal turn out when “GTTATTGACAGATGGTTTGAAATTATTAGATAACATATGGCGGAGTCACCTAGTGCAG” was run?
A: Its binding signal is 37300 fluorescence intensity (a.u.).

Q: “GGCCTAATTGGCCCACACGGGTCAAAGCCCAAATACCACGCGGAGTCACCTAGTGCAG” was tested. Which binding signal did it give?
A: The binding signal was 34200 fluorescence intensity (a.u.).

Q: How did the binding signal turn out when “TTCAAACTTTTAATTTTAGTCAAACTTTCAATTTTGGCGTCGGAGTCACCTAGTGCAG” was run?
A: Its binding signal is 3330 fluorescence intensity (a.u.).

Q: How did the binding signal turn out when “GTCAGTTTTAATTATCTACAGTTAAATAGAGAACACGTTCCGGAGTCACCTAGTGCAG” was run?
A: The binding signal was 15300 fluorescence intensity (a.u.).

Q: With “TCCCACATTTATATTGATGCATCTAGATTCATTAACATCACGGAGTCACCTAGTGCAG” as the sequence, how does the binding signal read?
A: The binding signal was 3680 fluorescence intensity (a.u.).

Q: With “CATTTCATGACTGATTGCAGGTTGGTGCCCATGGCACTGGCGGAGTCACCTAGTGCAG” as the sequence, how does the binding signal read?
A: Its binding signal is 18500 fluorescence intensity (a.u.).

Q: How did the binding signal turn out when “ATGGCTAATTATGGACTAATTAGACTCAAAAGATTCGTTTCGGAGTCACCTAGTGCAG” was run?
A: The binding signal was 19800 fluorescence intensity (a.u.).

Q: “CTAAAATCAATCAACAAGTGCGCGTCTCTGTCGCTGCACTCGGAGTCACCTAGTGCAG” was tested. Which binding signal did it give?
A: The binding signal was 31000 fluorescence intensity (a.u.).

Q: With “TTTGCCTGTTAATTTCAATCTATTTTGTATACTCTCCTCGCGGAGTCACCTAGTGCAG” as the sequence, how does the binding signal read?
A: The binding signal was 35500 fluorescence intensity (a.u.).

Q: For “TGTTTAAGTTTGTCCTAATTACCTGTCACATTTTCCGTGCCGGAGTCACCTAGTGCAG”, which binding signal is on record?
A: Its binding signal is 8460 fluorescence intensity (a.u.).

Q: “AATTAATTTACTTAGTATATTGTATTAAACATATAGGCAACGGAGTCACCTAGTGCAG” was tested. Which binding signal did it give?
A: Its binding signal is 13600 fluorescence intensity (a.u.).

Q: With “TGATGATTTATGGACACCTCCAAAGATGAAACTCATTTTCCGGAGTCACCTAGTGCAG” as the sequence, how does the binding signal read?
A: The binding signal was 4790 fluorescence intensity (a.u.).

Q: Which binding signal does the source give for “TCTAGATTGTAATATTATGGGACGAAGAGAGTAACAAGTCCGGAGTCACCTAGTGCAG” here?
A: The binding signal was 7020 fluorescence intensity (a.u.).

Q: For “CAGAGTAAATTAAACAAGTGACACCCCTATGCGCCTCTACCGGAGTCACCTAGTGCAG”, which binding signal is on record?
A: Its binding signal is 8460 fluorescence intensity (a.u.).
